This is one part of the list. Values were computed here from the reads of four pooled replicates and scatter widely.
target: T1, Pho4 (S. cerevisiae) (UniProt P07270); experiment: relative binding free energy (BET-seq); higher = weaker binding; settings: reference: library average
T1 sequence: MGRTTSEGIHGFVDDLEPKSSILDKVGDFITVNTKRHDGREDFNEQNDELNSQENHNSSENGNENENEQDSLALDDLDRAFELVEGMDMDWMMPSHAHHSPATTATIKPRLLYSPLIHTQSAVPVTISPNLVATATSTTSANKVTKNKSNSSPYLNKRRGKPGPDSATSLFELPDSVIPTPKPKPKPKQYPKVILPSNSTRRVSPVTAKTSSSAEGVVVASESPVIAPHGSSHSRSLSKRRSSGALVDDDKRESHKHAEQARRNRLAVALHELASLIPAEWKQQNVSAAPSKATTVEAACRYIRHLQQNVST

Relative binding free energy, 0.4 kcal/mol:
TGAGACACGTGAAGTT
GTTAGCACGTGAAAAT

Relative binding free energy, -0.14 kcal/mol:
GAGGACACGTGGGGGA
AGCTCCACGTGGGGTG

Relative binding free energy, -0.18 kcal/mol:
GTGCCCACGTGGTGGT
TATTGCACGTGGGGGG

Relative binding free energy, 0.56 kcal/mol:
GGTCTCACGTGAGTTA

Relative binding free energy, 0.46 kcal/mol:
CGGTTCACGTGAGGGG

Relative binding free energy, -0.09 kcal/mol:
TTTGGCACGTGGACTA
GTGGCCACGTGTGCTG

Relative binding free energy, 0.05 kcal/mol:
AACAACACGTGTGGGT
GTTATCACGTGTGCTA
TATTTCACGTGGGCAG
TGAAGCACGTGTCATT
GTCGGCACGTGTGAGA
TCATACACGTGTTGTA

Relative binding free energy, 0.11 kcal/mol:
TTTTGCACGTGACAGG
GTGGACACGTGTGGGG
ATGATCACGTGTATTG
CTGGACACGTGTGTTA
AGGATCACGTGATAGT
GAGGTCACGTGGGTAC
TTTATCACGTGCTTTG
ACGATCACGTGTGTTG
AGGCGCACGTGACGGG
TCGTTCACGTGGGGCG

Relative binding free energy, -0.03 kcal/mol:
TGATGCACGTGCGGTG
TGGAGCACGTGGAAGA
GGTTGCACGTGCTGTC
GCTCACACGTGGGGGG

Relative binding free energy, -0.23 kcal/mol:
TTCGGCACGTGGGGCC

Relative binding free energy, -0.15 kcal/mol:
TCAGGCACGTGGTAGG
TATAGCACGTGTTGTG
TGTGACACGTGGTAGA
GGTCGCACGTGGTAGT

Relative binding free energy, -0.25 kcal/mol:
TTTAGCACGTGGCGCT

Relative binding free energy, 0.12 kcal/mol:
ATAGTCACGTGCTTTT
GTATTCACGTGGGGGT
GTGTGCACGTGATGAC
TGGGTCACGTGCATTG
TTGGACACGTGGATTG
TGGATCACGTGGTCGG

Relative binding free energy, 0.21 kcal/mol:
TATAGCACGTGAAAGG
GGTTGCACGTGGAATC
ACTTTCACGTGTTATT
GCGGTCACGTGAGGAG

Relative binding free energy, -0.21 kcal/mol:
AAAGGCACGTGTTGGA

Relative binding free energy, 0.1 kcal/mol:
TTTTACACGTGTATTC
ATAATCACGTGTTATT
TGTCACACGTGTGTTT
TTATGCACGTGTGGAC

Relative binding free energy, 0.34 kcal/mol:
TAATTCACGTGAATTG
TTCGACACGTGGAGAT

Relative binding free energy, 0.16 kcal/mol:
CGATGCACGTGTGATT
GTAATCACGTGGGATT
ACAGTCACGTGTGCGT

Relative binding free energy, 0.02 kcal/mol:
GTGGGCACGTGGCAAA
ATTTGCACGTGATGTC
GGAGTCACGTGGGTAC
GTCGACACGTGCGTGG
TTGGGCACGTGGACGG

Relative binding free energy, -0.22 kcal/mol:
GGGGGCACGTGGCACG
CTTGGCACGTGGCGGT

Relative binding free energy, 0.15 kcal/mol:
TTGAACACGTGTATCT
GGGTACACGTGGAGCA
CTGAACACGTGGATGT

Relative binding free energy, -0.12 kcal/mol:
CTGGACACGTGGCTGG
GGGCGCACGTGGGACG
TTCTGCACGTGGGTGG

Relative binding free energy, -0.19 kcal/mol:
GGTGGCACGTGGTGCA

Relative binding free energy, 0.45 kcal/mol:
GTCTTCACGTGATGGG

Relative binding free energy, -0.16 kcal/mol:
TTACACACGTGGGTAG
CGGAGCACGTGTTGTA
AGTGCCACGTGGAGGA
TGTGGCACGTGATCAG
GGAGGCACGTGCGTTG
TGTGGCACGTGCATGC

Relative binding free energy, 0.29 kcal/mol:
GGTTTCACGTGAAGTC
GGACTCACGTGTAGTT
ATTTTCACGTGTCAAT

Relative binding free energy, 0.36 kcal/mol:
TGTATCACGTGAAAGG
ATGCTCACGTGAGTTT

Relative binding free energy, 0.24 kcal/mol:
GCGTTCACGTGTGCGT
GCTTTCACGTGCTGGG
TGTGCCACGTGAAAGG
TTTCTCACGTGTGGGG
GGGCTCACGTGCGGGG

Relative binding free energy, 0.08 kcal/mol:
CGATGCACGTGTGTTA
CGGGACACGTGTAGTG
GATGGCACGTGTTGTA
ATCTGCACGTGAGTGT
AGGTGCACGTGAGGGC
TGGTCCACGTGTGATA
TTTATCACGTGGCATA

Relative binding free energy, 0.03 kcal/mol:
GTGGGCACGTGGAGCA
AATGGCACGTGGAAGA
CGTTACACGTGTCTGT
CTGTCCACGTGTGGGG

Relative binding free energy, 0 kcal/mol:
ACTGGCACGTGATTTT
GGTAACACGTGTGTTT
ATTACCACGTGTATGG
GTGTACACGTGGGTGA
GGGGACACGTGGAGAG

Relative binding free energy, -0.1 kcal/mol:
AACGTCACGTGGGTGG
ATGTGCACGTGCGGTA
GTTGGCACGTGGCAAT
CTCGGCACGTGTGGGT
TTGAGCACGTGTCCGG

Relative binding free energy, -0.4 kcal/mol:
AGAGCCACGTGGGGTG

Relative binding free energy, 0.18 kcal/mol:
ATTTACACGTGCAATT
TAAGTCACGTGGAGTG
GGCGGCACGTGAATAG
GACGTCACGTGTTTAT
GTGGTCACGTGGTTAG

Relative binding free energy, 0.06 kcal/mol:
GGTGACACGTGTGCTA
GATCACACGTGGGGGG
GTTTGCACGTGGTTAG
AGCGTCACGTGCGGGG
ATTGGCACGTGAGATA

Relative binding free energy, -0.05 kcal/mol:
GCATGCACGTGGCGGG
ATTGCCACGTGGGGAA
ATAGACACGTGGTGCT
ACTTGCACGTGGTTGG

Relative binding free energy, -0.27 kcal/mol:
CAGTGCACGTGGGTGC

Relative binding free energy, 0.2 kcal/mol:
CGTCTCACGTGGTTGG
GTTGGCACGTGATTGC
AGTATCACGTGCAGGC

Relative binding free energy, -0.02 kcal/mol:
GGTAGCACGTGTATGA
TTGCGCACGTGTGTTC
TGTAACACGTGTTTTT
AAATGCACGTGTTTTT
GCGTGCACGTGTGTGG
TTTAGCACGTGATCTT

Relative binding free energy, -0.31 kcal/mol:
ATACGCACGTGGGGTT
GAGGGCACGTGCGGGA

Relative binding free energy, -0.24 kcal/mol:
TGGTGCACGTGGCCTG
TTGGGCACGTGGGTCC

Relative binding free energy, -0.04 kcal/mol:
GGGTCCACGTGCGAGG

Relative binding free energy, 0.31 kcal/mol:
TGCAACACGTGAGGGT

Relative binding free energy, 0.22 kcal/mol:
CATTTCACGTGGTTAT
CGATTCACGTGCTGGG

Relative binding free energy, 0.01 kcal/mol:
TAGTGCACGTGATAGT
GTGGACACGTGCTGAG
TTATGCACGTGTGGTC
GTTATCACGTGGGTTA
AATAACACGTGTTTGG
CGGTCCACGTGTTTGG

Relative binding free energy, 0.17 kcal/mol:
CCGGTCACGTGTTTTG
TTTGTCACGTGGGACC
AGTGTCACGTGTGCCG
GAGGGCACGTGAGGTA

Relative binding free energy, 0.13 kcal/mol:
ACCTTCACGTGGGTGG
TTGAGCACGTGAAATT
TGGTACACGTGGAGAA
AGCTTCACGTGTAGGG
GGCGTCACGTGTCGGA

Relative binding free energy, 0.07 kcal/mol:
ATGGTCACGTGGCTGG
TGCTGCACGTGGTTGA
AATTACACGTGTAAGT
GGTCGCACGTGTATCG
GTGTCCACGTGTTAGA
AGGTGCACGTGGAGTC
TGTGTCACGTGCCCGG
GGTCGCACGTGTCGGG
TCGAACACGTGTGTTT
TTAATCACGTGGTGTC

Relative binding free energy, -0.11 kcal/mol:
AGTGTCACGTGCGTTA
GGGGGCACGTGATCAT
TGTGGCACGTGGTCTT
TAATGCACGTGGTGAA
CAGTGCACGTGGTATT

Relative binding free energy, 0.25 kcal/mol:
TTTATCACGTGAGTCG
TATTTCACGTGTTTGG
TAATTCACGTGTTTGT

Relative binding free energy, 0.04 kcal/mol:
TAGGGCACGTGGAAGT
GGGTCCACGTGTGCAG
ATAAGCACGTGGTGCA
TGTCTCACGTGGTTAT

Relative binding free energy, 0.47 kcal/mol:
ATTTTCACGTGAGTTG

Relative binding free energy, -0.01 kcal/mol:
TGAGGCACGTGGAATA
TTCGGCACGTGTGTCG
AGTAGCACGTGTTAAG

Relative binding free energy, 0.26 kcal/mol:
GGGCTCACGTGGAGTT
GTGTTCACGTGTGAAC
TTGTTCACGTGGATTA

Relative binding free energy, 0.23 kcal/mol:
CATTTCACGTGTATTA
TATGTCACGTGTAAGC

Relative binding free energy, 0.33 kcal/mol:
GGAGTCACGTGAGGGA
GTCTTCACGTGAAGTT

Relative binding free energy, 0.32 kcal/mol:
TTCTTCACGTGGGATC

Relative binding free energy, -0.17 kcal/mol:
AGGACCACGTGGGTAT
ATTAACACGTGGTGCT

Relative binding free energy, 0.35 kcal/mol:
GGTTTCACGTGTTTGG
GATTTCACGTGTTGGA
AGTTTCACGTGATGGC

Relative binding free energy, -0.13 kcal/mol:
TACTGCACGTGTTGTA
TTTGGCACGTGTTCAT

Relative binding free energy, 0.09 kcal/mol:
TAGGTCACGTGCGGGT
CGGTTCACGTGGTTGA
GTCATCACGTGGTAGT
ATGCACACGTGTGTGT

Relative binding free energy, 0.14 kcal/mol:
CTTAACACGTGTGGGC
GTTGGCACGTGAATTG
CTGGTCACGTGGAATG

Relative binding free energy, -0.07 kcal/mol:
GTTAACACGTGCAGGG
GTATGCACGTGGGAGA
ACGAGCACGTGTGTTG
TATGACACGTGGAAGG

Relative binding free energy, 0.28 kcal/mol:
GTGATCACGTGTAAGT
TTGTTCACGTGTAAAT
TTCTTCACGTGGGGGC
TACATCACGTGATATT

Relative binding free energy, -0.08 kcal/mol:
AAGTGCACGTGTAAGG
ACGTGCACGTGGAGTT
TGGAGCACGTGTTTAA

Relative binding free energy, 0.27 kcal/mol:
TAAAGCACGTGAAGTG
TTTGCCACGTGAGATT
GCGGACACGTGATTGG
GTATTCACGTGGCTTG
GGGCTCACGTGGTAAG

Relative binding free energy, 0.19 kcal/mol:
TTTATCACGTGGACTA
GGCCTCACGTGGGTTT
TTGGACACGTGTTGTT
ATGTTCACGTGGGTGT

Relative binding free energy, -0.06 kcal/mol:
GGCTACACGTGGGTAG
CTTAACACGTGTTATG
TTGGGCACGTGGAGGT
GGTCGCACGTGGTATA
AGTTGCACGTGCATTT

Relative binding free energy, 0.37 kcal/mol:
GGTTACACGTGATTGC

Reference: the BET-seq Pho4 binding data (Le et al. 2018)
